Data taken from PubChem BioAssay AID485297 (National Center for Advancing Translational Sciences (NCATS), 2010).
Among all 320,000 compounds or so, about 9,100 (2.8%) were called active. This list was built around the results that the source calls inconclusive (neither active nor inactive); the mix of calls is not that of the screen. Calls follow the shape of the dose curve; as a rule, active = well fitted activation curve with a large enough effect; inconclusive = small, poorly fitted or top-dose-only effect; inactive = no such curve, though single readings can be large or run the other way. No potency is given beside an inconclusive call; the fits are too rough.

assay: qHTS Assay for Rab9 Promoter Activators; details: Huh7 Rab9 promoter-luciferase reporter, luminescence, 24 h; series mostly up to 9.22 µM; activation, negative = inhibition: at the top concentration; also: nearly all actives have a fitted effect of over 60% in size; as to activation, negative = inhibition: % of control where 0% means no effect
In short: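 Luminescence from Amplite-detected luciferase (10 minutes, ambient) reports Rab9 promoter activation. Before that, stable Rab9-luciferase Huh7 cells (1500/well, reduced-serum OP-MEM I plus 10% FBS) were exposed to compound for 24 hours at 37C.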
Potency is read from the fitted curve at half-maximal effect; tags tell the direction and shape of the fitted curve.

Structure (SMILES)	activation, negative = inhibition	Potency
CCCN(Cc1nnc(-c2cccs2)o1)C(=O)CN1C(=O)NC2(CCC(C)CC2)C1=O (stereo not drawn)	inactive: 1.01%	–
O=C1NC(c2ccccc2Br)=N/C1=C\c1ccco1	–	inconclusive [activator, partial curve]
COc1ccc(O)c(C(=O)C2c3ccccc3C(=O)N2c2ccc(C)cc2)c1 (stereo not drawn)	–	inconclusive [activator, single point]
CN(CC(=O)Nc1cccc(F)c1)C(=O)CCCNC(=O)c1ccc(Cl)cc1	–	inconclusive [activator, single point]
O=[N+]([O-])c1ccc(-c2csc(N3CCCCCC3)n2)cc1	–	inconclusive [activator, single point]
COc1ccc(NC(=O)c2ccc3ncsc3c2)cc1	–	active: 1.41 µM
CCCOc1ccc(N2C(=O)CC(SCCN)C2=O)cc1 (stereo not drawn)	–	active: 2.24 µM
Cc1ccc(NC(=O)c2ccc(NCCCN3CCOCC3)c([N+](=O)[O-])c2)cc1Cl	inactive: -2.59%	–
COc1ccc(Nc2nc(N)nc(CSc3nnc(N)s3)n2)cc1	–	inconclusive [activator, single point]
CC(C)CNC(=O)COC(=O)CNC(=O)c1cc(Cl)cc([N+](=O)[O-])c1	inactive: -6.08%	–
Cc1ccc(-c2csc(NC(=O)c3ccco3)n2)cc1C	–	active: 3.98 µM
O=C(c1ccccc1)N1CCSc2sccc2C1=O	–	inconclusive [activator, full curve]
c1ccc(-c2ccc(-c3ccccn3)nn2)nc1	–	active: 0.316 µM
COc1cccc(NC(=O)c2c(F)cccc2F)c1	–	inconclusive [activator, partial curve]
O=C(Nc1ccccc1)Nc1ccc(C(F)(F)F)cn1	–	inconclusive [activator, single point]
O=C(Nc1ccccc1)N1CCN(c2nc3ccccc3s2)CC1	inactive: -2.53%	–
O=c1c(-c2ccc(Br)cc2)coc2c(CN3CCOCC3)c(O)ccc12	inactive: -5.8%	–
Cc1ccc(C(=O)Nc2nc(=O)n(C(=O)c3ccccc3C)s2)cc1	–	inconclusive [activator, single point]
Cc1cc(C(=O)NC2CC(C)(C)Cc3c2cnn3-c2ccc(F)cc2)no1 (stereo not drawn)	–	inconclusive [activator, single point]
CN(C)c1ccc(-c2nnc(SCC3CCCO3)n2C)cc1 (stereo not drawn)	–	active: 3.16 µM
Cc1ccccc1NC(=O)c1ccc(OCc2c(C)noc2C)cc1	inactive: -2.52%	–
CC(C)(C)c1ccc(NC(=O)c2c(F)cccc2Cl)cc1	–	inconclusive [activator, single point]
Cc1ccc(Nc2nc3nonc3[nH]c2=O)cc1	–	inconclusive [activator, partial curve]
N#Cc1ccc(OCC(=O)Nc2cccc(S(=O)(=O)NC3=NCCCCC3)c2)cc1	inactive: -0.584%	–
CCOc1ccc(NC(=S)N2CCN(CCN3C(=O)c4cccc5cccc(c45)C3=O)CC2)cc1	inactive: -0.555%	–
COCCN(Cc1ccco1)C(=O)C1CCCN(c2ncnc3c2nc2n3CCCCC2)C1 (stereo not drawn)	inactive: -1.03%	–

Structure (SMILES)	activation, negative = inhibition	Potency
COc1ccccc1-c1nnc(NC(C)=O)s1	–	inconclusive [activator, partial curve]
Clc1ccccc1OCc1nnc(-c2ccccc2Br)o1	–	inconclusive [activator, single point]
COc1ccc(-c2nnc(SC(C)C(=O)Nc3ccc4c(c3)OCCO4)o2)cc1 (stereo not drawn)	–	inconclusive [activator, single point]
O=C(Nc1ccccc1N1CCOCC1)c1ccc(N2CCOCC2)c([N+](=O)[O-])c1	inactive: -1.3%	–
C=CC(C)(C)c1[nH]cnc1/C=C1\NC(=O)C(C(C)C)NC1=O (stereo not drawn)	inactive: -7.93%	–
Cc1ccc(Oc2ccc(NC(=O)c3ccco3)cc2)cc1	–	inconclusive [activator, partial curve]
Fc1cccc(F)c1/C=N/Nc1ccccn1	–	inconclusive [activator, partial curve]
CCOc1ccc(OCCC(=O)N(CC)CC(=O)Nc2c(F)cccc2F)cc1	inactive: -1.31%	–
CC(=O)Nc1cccc(CCc2nc3ccccc3[nH]2)c1	–	inconclusive [activator, partial curve]
Nn1c(COc2ccccc2)nnc1SCc1cc(=O)[nH]c2ccccc12	–	inconclusive [activator, single point]
CCc1cc(=O)oc2cc(OCc3ccc(C(=O)O)o3)ccc12	–	inconclusive [activator, partial curve]
CCCNc1c(NC(=O)c2cccs2)c(=O)oc2ccccc12	inactive: -2.89%	–
O=C(NCc1csc(-c2cccs2)n1)C1CCCCC1	–	inconclusive [activator, single point]
COC(=O)c1ccc(CC(=O)c2nc3ccccc3s2)cc1	–	active: 2.82 µM
COc1cccc(C2=NOC(C(=O)N3CCOCC3)C2)c1 (stereo not drawn)	–	inconclusive [activator, partial curve]
O=C(CCS(=O)(=O)c1ccccc1)N1CCOCC1	–	inconclusive [activator, single point]
Cc1cccc(C2c3[nH]c4ccccc4c3CCN2Cc2cccn2-c2ncccn2)c1 (stereo not drawn)	–	inconclusive [activator, single point]
COc1ccccc1C(=O)NNC(=O)c1ccccc1Br	inactive: 19.4%	–
O=c1[nH]cnc2scc(-c3ccc(F)cc3)c12	–	inconclusive [activator, single point]
CC(=O)N1CCC(C(=O)OCc2ccccc2F)(c2ccccc2)CC1	–	inconclusive [activator, single point]
Nc1ccc(OCCc2ccccc2)cc1	–	inconclusive [activator, partial curve]
O=C(Nc1ccnc(=O)[nH]1)c1sc2ccccc2c1Cl	–	inconclusive [activator, single point]
Cc1ccc2nc3c(nc2c1)-c1ccccc1C3=O	–	inconclusive [activator, single point]
COCCNC(=O)c1cn(C)c2ccc(S(=O)(=O)N3CCCCC3)cc2c1=O	inactive: -4.25%	–
Cc1cc(C(=O)COC(=O)c2ccc[nH]c2=O)c(C)n1-c1ccc(F)cc1	–	active: 0.355 µM
Cc1c(C(=O)Oc2cccc3ccccc23)cnn1-c1ccccc1	–	inconclusive [activator, single point]

Structure (SMILES)	activation, negative = inhibition	Potency
COc1ccc(N2Cc3ccc(C(=O)N/N=C\c4ccc(O)cc4O)cc3C2)cc1	–	inconclusive [activator, single point]
CCN(CC)CCN1C(=O)C(=O)/C(=C(/O)c2ccc(OC(C)C)cc2)C1c1cccs1 (stereo not drawn)	–	inconclusive [activator, single point]
CC1=C(C(=O)Nc2ccc(CC(=O)NCc3ccccc3C)cc2)SCCO1	–	inconclusive [activator, partial curve]
Cc1ccc(Cl)cc1NC(=O)Nc1cccs1	inactive: -0.929%	–
Cc1ccc2cc(CCNC(=O)c3cccc([N+](=O)[O-])c3)c(=O)[nH]c2c1C	inactive: -3.88%	–
Cc1[nH]n(-c2ccc(F)cc2)c(=O)c1/C=N/c1sc2c(c1C#N)CCCC2	inactive: 0.176%	–
CCNc1nc(NCC)nc(C(=O)Nc2ccccc2)n1	–	inconclusive [activator, full curve]
CC(=O)c1c(C)[nH]c(C(=O)OCC(=O)N2CCc3ccccc3C2)c1C	inactive: -0.443%	–
CCOc1ccc(N(CC(=O)NC(C(C)C)C(C)C)S(=O)(=O)c2ccc(OC)c(OC)c2)cc1	inactive: -5.07%	–
CCCCNC(=O)NS(=O)(=O)c1ccc(C)cc1	–	inactive
Nc1c(C(=O)c2ccc(Br)s2)oc2ccccc12	–	inconclusive [activator, partial curve, poor fit]
COc1cc(-c2n[nH]c(=S)n2/N=C/c2cccn2C)cc(OC)c1OC	inactive: -5.37%	–
Cc1cccnc1Nc1nc(-c2ccc(O)c(O)c2)cs1	–	inconclusive [activator, single point]
Cc1ccc2oc(C(=O)N3CCN(CC(=O)NC(C)C)CC3)c(C)c2c1	inactive: -1.02%	–
O=C(N/N=C/c1ccc2c(c1)OCO2)C(=O)Nc1ccccc1	–	inconclusive [activator, partial curve]
COc1ccccc1C(=O)Nc1cc2ccccc2oc1=O	–	active: 3.98 µM
COc1ccc(NC(=O)c2ccccc2)c([N+](=O)[O-])c1	–	active: 2.82 µM
CN(c1ccc(C(=O)NCCSC(C)(C)C)cc1)S(C)(=O)=O	–	inconclusive [activator, partial curve]
COc1ccc(Nc2ncnc3sc(C)cc23)cc1	–	inconclusive [activator, single point]
COC(=O)c1ccc(CN2C(=O)NC(Cc3c[nH]c4ccccc34)C2=O)cc1 (stereo not drawn)	–	inconclusive [activator, single point]
CCSc1ncc(/C=N/Nc2ccc(F)cc2)n1C	–	inconclusive [activator, single point]
Nc1nc(CSc2ccccc2)nc(N2CCCCC2)n1	–	inconclusive [activator, single point]
COC(=O)c1ccsc1NC(=O)c1ccco1	inactive: 5.53%	–
CC1CCN(C(=O)COC(=O)c2ccc3c(c2)C(=O)N(Cc2ccco2)C3=O)CC1	inactive: 1.68%	–
Cc1ccc(NC(=O)N2CCCCCC2)cc1	–	inconclusive [activator, partial curve]
O=c1[nH]c(-c2ccccn2)nc2ccccc12	–	inconclusive [activator, partial curve]
